# This is one part of the list. Most values come without repeats; read them as rough.
# Test system: A2058
# Assay: cell count relative to DMSO control; melanoma cells; higher = more viable cells
# Conditions: library dose: standard library concentration; 72 h
# 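Further: cells treated in 1,536-well plates, then fixed and DAPI-stained, with nuclei counted from automated high-throughput microscope images.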
row,SMILES,cell count
1,"C[C@]12O[C@H](C[C@]1(O)CO)n1c3ccccc3c3c4c(c5c6ccccc6n2c5c31)CNC4=O [Lestaurtinib] + CC(C)(C)c1cnc(CSc2cnc(NC(=O)C3CCNCC3)s2)o1 [SNS-032] (first compound 0.02 µM, partner dose 0.05 µM)",74%
2,"Cn1cc(C2=C(c3cn(C4CCN(Cc5ccccn5)CC4)c4ccccc34)C(=O)NC2=O)c2ccccc21 [Enzastaurin] + O=C(O)C(=O)Nc1sc2c(c1C(=O)O)CCNC2 [TCS401] (first compound 4 µM, partner dose 8.33333 µM)",93.2%
3,"N.N.[Cl][Pt][Cl] [cisplatin] + COCC[n+]1c2c(n(Cc3cnccn3)c1C)C(=O)c1ccccc1C2=O [YM155] (first compound 8 µM, partner dose 0.002 µM)",22.6%
4,"C[C@]12O[C@H](C[C@]1(O)CO)n1c3ccccc3c3c4c(c5c6ccccc6n2c5c31)CNC4=O [Lestaurtinib] + C=CCNC1=C2C[C@@H](C)C[C@H](OC)[C@H](O)[C@@H](C)/C=C(\C)[C@H](OC(N)=O)[C@@H](OC)/C=C\C=C(/C)C(=O)NC(=CC1=O)C2=O [Tanespimycin] (first compound 0.02 µM, partner dose 0.01 µM)",38.3%
5,"C[C@]12O[C@H](C[C@]1(O)CO)n1c3ccccc3c3c4c(c5c6ccccc6n2c5c31)CNC4=O [Lestaurtinib] + OCc1c[nH]c2ccccc12 [Indole-3-carbinol] (first compound 0.02 µM, partner dose 4 µM)",107%
6,"C[As](C)SC[C@H](NC(=O)CC[C@H](N)C(=O)O)C(=O)NCC(=O)O [Darinaparsin] + Nc1cccc2c1CN(C1CCC(=O)NC1=O)C2=O [lenalidomide] (first compound 2 µM, partner dose 5 µM)",91.4%
7,"C[As](C)SC[C@H](NC(=O)CC[C@H](N)C(=O)O)C(=O)NCC(=O)O [Darinaparsin] + CC(C)(C)c1cnc(CSc2cnc(NC(=O)C3CCNCC3)s2)o1 [SNS-032] (first compound 2 µM, partner dose 0.05 µM)",76.6%
8,"Cn1cc(C2=C(c3cn(C4CCN(Cc5ccccn5)CC4)c4ccccc34)C(=O)NC2=O)c2ccccc21 [Enzastaurin] + C[C@]1(O)C[C@@H](c2nc(-c3ccc4ccc(-c5ccccc5)nc4c3)c3c(N)nccn32)C1 [OSI906] (first compound 4 µM, partner dose 2 µM)",83.9%
9,"Cn1cc(C2=C(c3cn(C4CCN(Cc5ccccn5)CC4)c4ccccc34)C(=O)NC2=O)c2ccccc21 [Enzastaurin] + CO[C@H]1C[C@@H]2CC[C@@H](C)[C@@](O)(O2)C(=O)C(=O)N2CCCC[C@H]2C(=O)O[C@H]([C@H](C)C[C@@H]2CC[C@@H](OCCO)[C@H](OC)C2)CC(=O)[C@H](C)/C=C(\C)[C@@H](O)[C@@H](OC)C(=O)[C@H](C)C[C@H](C)/C=C/C=C/C=C/1C [everolimus] (first compound 4 µM, partner dose 0.1 µM)",68%

# Test system: A375
# Assay: as above
# Conditions: library dose: standard library concentration; 72 h
row,SMILES,cell count
1,"C[C@]12O[C@H](C[C@]1(O)CO)n1c3ccccc3c3c4c(c5c6ccccc6n2c5c31)CNC4=O [Lestaurtinib] + COc1ccc(-c2ccc3c(N4CCOCC4)nc(N4C[C@@H](C)O[C@@H](C)C4)nc3n2)cc1CO [KU0063794] (first compound 0.02 µM, partner dose 0.1 µM)",82%
2,"C[C@]12O[C@H](C[C@]1(O)CO)n1c3ccccc3c3c4c(c5c6ccccc6n2c5c31)CNC4=O [Lestaurtinib] + C/C(O)=C(\C#N)C(=O)Nc1cc(Br)ccc1Br [LFM-A13] (first compound 0.02 µM, partner dose 10 µM)",100%
3,"Cn1cc(C2=C(c3cn(C4CCN(Cc5ccccn5)CC4)c4ccccc34)C(=O)NC2=O)c2ccccc21 [Enzastaurin] + O=C(O)[C@@H]1[O][Sb](=[O])([O][Sb]2(=[O])[O][C@H]([C@H](O)CO)[C@H](O)[C@H](C(=O)O)[O]2)[O][C@H]([C@H](O)CO)[C@@H]1O [stibogluconate] (first compound 4 µM, partner dose 10 µM)",121%
4,"N.N.[Cl][Pt][Cl] [cisplatin] + Nc1cccc2c1CN(C1CCC(=O)NC1=O)C2=O [lenalidomide] (first compound 8 µM, partner dose 5 µM)",108%
5,"Cn1cc(C2=C(c3cn(C4CCN(Cc5ccccn5)CC4)c4ccccc34)C(=O)NC2=O)c2ccccc21 [Enzastaurin] + Nc1ncn([C@H]2C[C@H](O)[C@@H](CO)O2)c(=O)n1 [decitabine] (first compound 4 µM, partner dose 0.5 µM)",96.4%
6,"Cn1cc(C2=C(c3cn(C4CCN(Cc5ccccn5)CC4)c4ccccc34)C(=O)NC2=O)c2ccccc21 [Enzastaurin] + COc1cc(N2CCC(N3CCN(C)CC3)CC2)ccc1Nc1ncc(Cl)c(Nc2ccccc2S(=O)(=O)C(C)C)n1 [NVP-TAE684] (first compound 4 µM, partner dose 0.4 µM)",84.4%
7,"Cn1cc(C2=C(c3cn(C4CCN(Cc5ccccn5)CC4)c4ccccc34)C(=O)NC2=O)c2ccccc21 [Enzastaurin] + NCC(=O)Nc1ccc(-n2nc(C(F)(F)F)cc2-c2ccc3c(ccc4ccccc43)c2)cc1 [OSU03012] (first compound 4 µM, partner dose 5 µM)",48.1%
8,"C[C@]12O[C@H](C[C@]1(O)CO)n1c3ccccc3c3c4c(c5c6ccccc6n2c5c31)CNC4=O [Lestaurtinib] + C[C@]1(c2nc3c(C(N)=O)cccc3[nH]2)CCCN1 [Veliparib] (first compound 0.02 µM, partner dose 7 µM)",102%
9,"Cn1cc(C2=C(c3cn(C4CCN(Cc5ccccn5)CC4)c4ccccc34)C(=O)NC2=O)c2ccccc21 [Enzastaurin] + c1cc(-c2cnn3cc(-c4ccc(OCCN5CCCCC5)cc4)cnc23)ccn1 [Dorsomorphin] (first compound 4 µM, partner dose 2 µM)",77.4%
10,"Cn1cc(C2=C(c3cn(C4CCN(Cc5ccccn5)CC4)c4ccccc34)C(=O)NC2=O)c2ccccc21 [Enzastaurin] + COc1ccc(Cl)c(Nc2nc3ccccc3nc2NS(=O)(=O)c2cccc(NC(=O)C(C)(C)N)c2)c1 [XL147] (first compound 4 µM, partner dose 4 µM)",97.6%
11,"C[As](C)SC[C@H](NC(=O)CC[C@H](N)C(=O)O)C(=O)NCC(=O)O [Darinaparsin] + C[C@@H]1CCN(C(=O)CC#N)C[C@@H]1N(C)c1ncnc2[nH]ccc12 [CP690550] (first compound 2 µM, partner dose 5 µM)",80.2%
12,"N.N.[Cl][Pt][Cl] [cisplatin] + CN(C)S(=O)(=O)c1ccc2c(c1)/C(=C/c1cc3c([nH]1)CCCC3)C(=O)N2 [SU6656] (first compound 8 µM, partner dose 2 µM)",121%
13,"C[As](C)SC[C@H](NC(=O)CC[C@H](N)C(=O)O)C(=O)NCC(=O)O [Darinaparsin] + NCC(=O)Nc1ccc(-n2nc(C(F)(F)F)cc2-c2ccc3c(ccc4ccccc43)c2)cc1 [OSU03012] (first compound 2 µM, partner dose 5 µM)",41.1%
14,"C[As](C)SC[C@H](NC(=O)CC[C@H](N)C(=O)O)C(=O)NCC(=O)O [Darinaparsin] + CN(NC(=O)CC(=O)NN(C)C(=S)c1ccccc1)C(=S)c1ccccc1 [STA4783] (first compound 2 µM, partner dose 0.03 µM)",105%
15,"N.N.[Cl][Pt][Cl] [cisplatin] + CCN(CC)CCCCNc1ncc2cc(-c3cc(OC)cc(OC)c3)c(NC(=O)NC(C)(C)C)nc2n1 [PD173074] (first compound 8 µM, partner dose 0.5 µM)",102%
16,"C[As](C)SC[C@H](NC(=O)CC[C@H](N)C(=O)O)C(=O)NCC(=O)O [Darinaparsin] + Cc1cc([N+](=O)[O-])ccc1NS(=O)(=O)c1cc(Cl)ccc1Cl [FH535] (first compound 2 µM, partner dose 5 µM)",65%
17,"C[As](C)SC[C@H](NC(=O)CC[C@H](N)C(=O)O)C(=O)NCC(=O)O [Darinaparsin] + Cn1cc(/C=C2\C(=O)Nc3cccnc32)c2ccccc21 [GW441756] (first compound 2 µM, partner dose 2 µM)",114%
18,"C[As](C)SC[C@H](NC(=O)CC[C@H](N)C(=O)O)C(=O)NCC(=O)O [Darinaparsin] + Cn1c(Nc2ccc(C(F)(F)F)cc2)nc2cc(Oc3ccnc(-c4ncc(C(F)(F)F)[nH]4)c3)ccc21 [CHIR265] (first compound 2 µM, partner dose 0.4 µM)",83.1%
19,"Cn1cc(C2=C(c3cn(C4CCN(Cc5ccccn5)CC4)c4ccccc34)C(=O)NC2=O)c2ccccc21 [Enzastaurin] + COc1ccc(-c2ccc3c(N4CCOCC4)nc(N4C[C@@H](C)O[C@@H](C)C4)nc3n2)cc1CO [KU0063794] (first compound 4 µM, partner dose 0.1 µM)",109%
20,"Cn1cc(C2=C(c3cn(C4CCN(Cc5ccccn5)CC4)c4ccccc34)C(=O)NC2=O)c2ccccc21 [Enzastaurin] + COc1cc2c(Oc3ccc4[nH]c(C)cc4c3F)ncnc2cc1OCCCN1CCCC1 [cediranib] (first compound 4 µM, partner dose 2 µM)",95.4%
